According to the supplement of paper PMC12217912:
Some of the results follow. The full chains were built here from the parent and the listed change. Inactive controls read about 0.05.

B1: TEV protease; numbered along this chain (parent)
chain: MGESLFKGPRDYNPISSSICHLTNESDGHTTSLYGIGFGPFIITNKHLFRRNNGTLVVQSLHGVFKVKDTTTLQQHLVDGRDMIIIRMPKDFPPFPQKLKFREPQREERICLVTTNFQTKSMSSMVSDTSCTFPSGDGIFWKHWIQTKDGQCGSPLVSTRDGFIVGIHSASNFTNTNNYFTSVPKNFMELLTNQEAQQWVSGWRLNADSVLWGGHKVFMVKPEEPFQPVKEATQL

Variants of: B1
Experiment: raw area under fraction-flipped curve 0-4 h after induction (AUC4h, not background-subtracted), DNA-recorder readout of cleavage of the substrate (dimensionless); higher = more cleavage of the substrate by the protease variant
Details: temperature: 34 °C; time window: 0-4 h after rhamnose induction
Protocol: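 In vivo DNA recorder in E. coli TOP10(DE3) ΔrhaA at 34 °C. Each TEVp single-site mutant (parent TEVp 0) is paired with a single-site variant of the 7-mer TEVs (canonical ENLYFQ|S). The substrate sits between flexible linkers in a Bxb1-sfGFP-TEVs-SsrA fusion, so cleavage stabilises Bxb1 and speeds flipping of a recombination array, read by NGS. The value is the raw area under the fraction-flipped curve over 0-4 h after rhamnose induction (AUC4h), with ≥20 reads per time point. It is not background-subtracted; inactive controls average about 0.047.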
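Note: Bxb1 expression induced with 0.2% (w/v) L-rhamnose at OD600 near 0.5, cultures sampled hourly, flipped fraction per protease–substrate barcode pair counted by paired-end Illumina sequencing.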

Variant | area with substrate EALYFQS | area with substrate ECLYFQS | area with substrate EDLYFQS | area with substrate EELYFQS | area with substrate EFLYFQS | area with substrate EILYFQS | area with substrate EKLYFQS | area with substrate ELLYFQS | area with substrate EMLYFQS | area with substrate EPLYFQS | area with substrate EQLYFQS | area with substrate ESLYFQS | area with substrate EVLYFQS | area with substrate EWLYFQS | area with substrate EYLYFQS | area with substrate EGLYFQS | area with substrate EHLYFQS | area with substrate ERLYFQS | area with substrate ETLYFQS
I42H | 0.0418 | 0.0469 | 0.0321 | 0.0376 | 0.0412 | 0.0381 | 0.0572 | 0.0483 | 0.0412 | 0.0322 | 0.0506 | 0.0537 | 0.0606 | 0.0377 | 0.0504 |  |  |  | 
I42N | 0.0492 |  |  | 0.073 |  |  |  | 0.0586 | 0.0485 | 0.0516 |  | 0.0514 | 0.0451 |  |  | 0.0492 | 0.0179 | 0.0589 | 
I43C | 0.108 | 0.0865 | 0.108 | 0.0948 |  | 0.081 | 0.0851 | 0.0772 | 0.0837 | 0.102 | 0.0984 | 0.0829 | 0.0711 | 0.0793 | 0.0488 | 0.087 | 0.101 |  | 0.108
T44Y | 0.0439 | 0.0446 |  | 0.0374 |  | 0.0393 | 0.0467 | 0.0453 | 0.0403 | 0.0463 | 0.0616 | 0.0435 |  |  | 0.0341 | 0.0198 | 0.0503 | 0.0277 | 
N45A | 0.0884 | 0.0812 | 0.102 | 0.0805 | 0.0942 | 0.0735 |  | 0.0653 |  |  | 0.109 | 0.0836 | 0.0712 | 0.0627 | 0.0829 | 0.0744 | 0.0592 | 0.0806 | 0.0735
N45K | 0.0549 | 0.0546 | 0.0629 | 0.0535 | 0.0718 | 0.0495 | 0.0645 |  | 0.0652 |  | 0.0556 | 0.0608 | 0.0597 |  |  | 0.0505 | 0.0673 | 0.0504 | 
K46L | 0.0925 | 0.0826 |  | 0.102 | 0.0954 | 0.085 | 0.0778 | 0.0787 | 0.0708 | 0.12 | 0.11 | 0.0737 | 0.0557 |  |  | 0.0669 | 0.0957 | 0.0497 | 0.0852
K46Q | 0.095 | 0.102 | 0.153 |  |  | 0.0973 | 0.0904 | 0.0455 | 0.109 |  |  | 0.0797 | 0.0951 | 0.104 | 0.0452 | 0.0591 |  | 0.0084 | 0.0674
K46Y | 0.0619 |  |  |  |  | 0.0557 | 0.0916 | 0.0326 | 0.042 | 0.0617 | 0.0604 | 0.0625 | 0.0589 | 0.054 |  |  | 0.0706 |  | 0.0469
H47I | 0.0649 | 0.054 | 0.0555 | 0.065 | 0.0607 | 0.0475 | 0.0592 | 0.0584 | 0.0604 | 0.0519 | 0.0614 | 0.0615 | 0.0564 | 0.0725 |  | 0.0496 |  | 0.0711 | 
R51L | 0.103 | 0.0958 |  |  | 0.0894 | 0.0769 |  |  | 0.128 | 0.103 |  | 0.0964 | 0.102 |  | 0.0952 |  |  | 0.094 | 0.17
N52R | 0.0684 | 0.0699 |  | 0.0741 |  | 0.0685 | 0.0743 |  | 0.0684 | 0.0621 | 0.0762 | 0.0889 |  |  |  |  | 0.0692 | 0.0719 | 0.084
N53R | 0.0772 | 0.0704 |  | 0.0857 |  | 0.0711 | 0.0894 | 0.0767 |  | 0.0879 | 0.101 | 0.103 | 0.0999 | 0.0851 |  | 0.0955 | 0.0732 | 0.071 | 0.0946
G54N | 0.0643 | 0.057 | 0.0786 | 0.0718 | 0.0743 | 0.0485 | 0.067 |  | 0.0649 | 0.0693 | 0.064 | 0.0734 |  | 0.0089 | 0.068 | 0.0621 |  | 0.06 | 0.0694
G54T | 0.102 | 0.0745 |  | 0.0804 |  | 0.0682 | 0.0873 | 0.0852 |  | 0.0857 | 0.0783 | 0.0775 | 0.0793 | 0.0875 |  | 0.063 | 0.0718 |  | 0.0735
T55Y | 0.0982 | 0.0815 |  |  |  | 0.0649 |  |  |  | 0.1 |  | 0.0777 |  |  | 0.0787 | 0.0879 | 0.057 | 0.0846 | 
V58K | 0.0721 | 0.0463 | 0.0574 |  |  | 0.0399 |  |  | 0.0512 | 0.0604 |  |  | 0.0465 | 0.0553 |  |  | 0.0124 | 0.0569 | 
S60E | 0.0657 | 0.0527 | 0.0624 | 0.0588 |  | 0.0561 | 0.0577 | 0.0555 |  |  | 0.0398 | 0.0605 | 0.059 | 0.0384 | 0.0494 |  |  |  | 0.0598
S60Y | 0.102 | 0.114 |  |  |  | 0.101 | 0.097 | 0.0814 |  |  | 0.12 | 0.117 | 0.0874 |  | 0.0978 |  |  | 0.119 | 
L61K | 0.12 | 0.102 | 0.126 | 0.121 |  | 0.104 |  | 0.102 |  | 0.121 |  | 0.11 | 0.0918 |  |  | 0.0995 |  | 0.0906 | 
H62M | 0.0665 | 0.0767 |  | 0.217 |  | 0.113 | 0.0873 |  |  |  | 0.12 | 0.118 |  |  |  |  |  | 0.0955 | 0.11
G63D | 0.0943 | 0.0861 | 0.109 | 0.117 |  |  | 0.0906 | 0.0787 | 0.0889 | 0.125 | 0.0801 | 0.102 | 0.0762 | 0.0578 |  | 0.0744 | 0.112 | 0.0901 | 
F65T | 0.125 | 0.102 | 0.107 | 0.097 |  | 0.0868 | 0.1 | 0.0976 | 0.108 | 0.116 | 0.111 | 0.0928 | 0.0697 |  | 0.121 | 0.0865 |  |  | 
K66I | 0.124 | 0.0982 |  |  | 0.0967 | 0.097 |  | 0.105 |  | 0.132 |  | 0.0964 |  | 0.0471 |  |  |  | 0.096 | 
V67M | 0.0474 | 0.103 |  |  |  | 0.104 |  | 0.083 |  | 0.0971 | 0.0709 |  | 0.0834 |  | 0.0859 | 0.0952 |  | 0.0742 | 
K68E | 0.12 | 0.115 |  |  | 0.117 | 0.116 | 0.112 | 0.0959 | 0.141 | 0.136 | 0.14 |  |  | 0.09 |  |  |  | 0.0997 | 0.119
K68L | 0.0881 | 0.0692 | 0.132 |  |  | 0.0921 | 0.0943 | 0.101 | 0.106 | 0.079 | 0.108 | 0.103 | 0.0979 | 0.0862 | 0.109 | 0.0873 | 0.111 | 0.0684 | 0.104
